# Results as given in publication PMC4336329 (PLoS ONE, 2015).
# In all, about 310,000 compounds went through this assay and about 14,000 (4.5%) showed an effect of 50% or more. The effect is printed as a negative number. Some of the results follow.
# Target: human ether-à-go-go-related gene (hERG) potassium channel (human, UniProt Q12809)
# Experiment: primary screen, population patch clamp on CHO cells stably expressing hERG
# 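Further: peak tail current of the secondary pulse compared with the same well before compound.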
# Sequence of human ether-à-go-go-related gene (hERG) potassium channel (Q12809 whole entry, looked up): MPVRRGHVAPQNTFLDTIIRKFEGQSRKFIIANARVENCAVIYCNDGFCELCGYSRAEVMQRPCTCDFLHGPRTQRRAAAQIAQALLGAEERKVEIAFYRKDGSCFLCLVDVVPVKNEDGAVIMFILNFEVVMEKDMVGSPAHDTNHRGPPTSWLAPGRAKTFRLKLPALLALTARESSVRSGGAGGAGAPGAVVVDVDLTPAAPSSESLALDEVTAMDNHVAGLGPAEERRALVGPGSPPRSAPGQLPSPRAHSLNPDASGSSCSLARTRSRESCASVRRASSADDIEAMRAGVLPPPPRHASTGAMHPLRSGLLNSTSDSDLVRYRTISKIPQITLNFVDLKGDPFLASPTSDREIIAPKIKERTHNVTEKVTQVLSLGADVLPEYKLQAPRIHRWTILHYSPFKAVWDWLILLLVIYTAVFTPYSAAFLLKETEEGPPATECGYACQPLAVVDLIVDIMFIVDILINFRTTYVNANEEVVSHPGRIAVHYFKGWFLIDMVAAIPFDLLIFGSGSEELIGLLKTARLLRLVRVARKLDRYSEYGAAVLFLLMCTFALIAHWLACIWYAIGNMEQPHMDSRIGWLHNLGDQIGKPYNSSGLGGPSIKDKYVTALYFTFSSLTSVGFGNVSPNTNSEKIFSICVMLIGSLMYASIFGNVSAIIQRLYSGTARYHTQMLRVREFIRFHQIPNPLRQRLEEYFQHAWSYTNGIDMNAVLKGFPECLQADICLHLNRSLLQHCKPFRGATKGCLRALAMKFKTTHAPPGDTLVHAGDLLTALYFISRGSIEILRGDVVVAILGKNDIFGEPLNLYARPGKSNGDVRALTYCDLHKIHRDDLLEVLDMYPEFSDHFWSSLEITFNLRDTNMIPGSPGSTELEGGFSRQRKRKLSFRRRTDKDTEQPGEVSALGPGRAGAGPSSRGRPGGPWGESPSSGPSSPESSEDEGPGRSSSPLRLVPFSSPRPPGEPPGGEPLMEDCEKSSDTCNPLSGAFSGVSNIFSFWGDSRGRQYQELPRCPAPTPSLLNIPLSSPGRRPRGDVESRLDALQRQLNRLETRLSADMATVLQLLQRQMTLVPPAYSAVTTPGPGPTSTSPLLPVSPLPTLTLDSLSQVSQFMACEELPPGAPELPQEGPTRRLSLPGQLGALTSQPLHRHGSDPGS
row,SMILES,"hERG current change (%, negative = inhibition) at 10uM [%]"
1,CCOC(=O)c1c(C)[nH]c(C)c1C(=O)COc1ncnc2ccccc12,23.3
2,O=C(c1cc(-c2ccc(F)cc2)on1)N1CCCCCC1,2.96
3,COc1cccc(/C=C(\C#N)c2nc3ccccc3[nH]2)c1OCC(=O)O,29.2
4,CC(C)CCNC(=O)CN(C)S(=O)(=O)c1cccc2nsnc12,-1.24
5,CCn1c(CNc2ccc(Cl)cc2)nnc1SCC(=O)OC1CCCCC1,-37
6,Cc1ccc2cc(CN(Cc3ccco3)C(=O)c3cccs3)c(=O)[nH]c2c1,-9.06
7,COc1ccccc1CCC(=O)OCC(=O)N1c2ccccc2NC(=O)C1(C)C,9.94
8,O=C(Cn1nc(-c2cccc([N+](=O)[O-])c2)c2ccccc2c1=O)NCC1CCCO1 (centres unmarked),-34.1
9,NC(=O)CN1CCN(C(=O)NC2CCCCC2)CC1,5.46
10,CCOc1ccc(-c2cccc(NS(=O)(=O)c3ccc([N+](=O)[O-])cc3)c2)nn1,-11.7
11,O=C(Nc1cccc(S(=O)(=O)N2CCOCC2)c1)c1cc2c(s1)CCC2,-33.8
12,Cc1ccnc(SC2CC(=O)N(c3ccc(Br)cc3)C2=O)n1 (centres unmarked),9.29
13,COc1ccc2c(c1)CCCC21SC(NC(C)=O)=NN1C(C)=O (centres unmarked),5.45
14,CC1CCC(NC(=O)CSc2nncs2)CC1 (centres unmarked),0.49
15,CCCCOCCCNC(=O)COc1ccccc1,2.15
16,CC(C)CNC(=O)NC(=O)CSc1nc2ccccc2n1CC(C)C,0.388
17,Cc1nc(SCC(=O)N2CCOCC2)c2ccsc2n1,1.76
18,Nc1cc(N)nc(SCC(=O)Nc2ccc3c(c2)OCO3)n1,-7.3
19,CCOc1cc2c(cc1C=O)OC(C)C2 (centres unmarked),22.1
20,CCOC(=O)N1CCN(C(=O)COc2cc(=O)n(C)c3ccccc23)CC1,-0.615
21,CCN(CC)CCOC(=O)c1ccc(N/C=C(/C#N)c2nc(-c3ccc4c(c3)OCO4)cs2)cc1,6.58
22,O=S(=O)(NC1CN2CCC1CC2)c1ccc(Cl)cc1 (centres unmarked),12.6

row,SMILES,"hERG current change (%, negative = inhibition) at 10uM [%]"
1,O=C(C[n+]1ccccc1)N/N=C/c1cc(Br)cc(Br)c1O.[Cl-],27
2,COc1cc(S(=O)(=O)N(Cc2ccccc2)Cc2ccccn2)ccc1-n1cnnn1,2.81
3,Cc1ccc(C(=O)N2CCc3ccccc32)o1,8.47
4,Cc1ccc(Nc2cc(-n3nc(C)cc3C)ncn2)c(C)c1,-3.97
5,COc1ccccc1-n1c(Cc2cccs2)n[nH]c1=S,33.3
6,CCN(C1CCS(=O)(=O)C1)S(=O)(=O)c1cc(C)ccc1C (centres unmarked),-13.9
7,O=C(NCc1ccco1)c1cc(S(=O)(=O)N2CCOCC2)ccc1Br,-20.9
8,O=C(NCc1cccc(C(F)(F)F)c1)C1CC2Cn3c(nc4ccccc43)C2N1Cc1ccccc1 (centres unmarked),-57.8
9,Cn1ncc(Cl)c1C(=O)N1CCC(Cc2ccccc2)CC1,-16.4
10,COc1ccc(C(CNC(=O)c2ccc(-c3nc4ccccc4s3)o2)N2CCCC2)cc1 (centres unmarked),-48.1
11,COc1ccc(C(NCC(=O)Nc2c(C)cccc2C)c2ccccc2)cc1.O=C(O)C(=O)O (centres unmarked),-7.85
12,COc1ccc(/C=C/C(=O)Nc2c(C)nn(C)c2C)cc1COc1ccc(Br)cc1,17.2
13,COc1ccc(C(=O)Nc2ccccc2-c2nnn(CC(=O)Nc3ccc4c(c3)OCCO4)n2)cc1,-0.148
14,Cc1ccc(/C=C(\NC(=O)c2ccccc2)C(=O)NC2CCN(Cc3ccccc3)CC2)o1,-55.5
15,COc1ccccc1N(CC(O)Cn1nc(C)cc1C)S(=O)(=O)c1ccccc1 (centres unmarked),12.2
16,O=C(Nc1ccccc1Cl)N1CCN(C/C=C/c2ccccc2)CC1,-25.9
17,COc1cc(CNC(=O)c2ccc3c(c2)S(=O)(=O)c2ccccc2C3=O)cc(OC)c1,-0.0926
18,O=C(NCc1ccccc1)C1CCCN(S(=O)(=O)c2cccc3nsnc23)C1 (centres unmarked),4.9
19,Cc1noc(C)c1COc1ccc(C(=O)OCC(=O)Nc2ccc(C(=O)N(C)C)cc2)cc1,18.9
20,O=C(CSc1ncccc1-c1nc2ccccc2[nH]1)N1CCN(c2ccccc2F)CC1,-23.8
21,CC1CCN(S(=O)(=O)c2ccc3c(c2)N(CC(=O)NCCCOC(C)C)C(=O)CO3)CC1,12.8
22,CN1CCC(=O)N(CCSc2ccccc2)CC1,-3.36

row,SMILES,"hERG current change (%, negative = inhibition) at 10uM [%]"
1,CC(C)Oc1ccc(CNS(=O)(=O)c2csc(C(N)=O)c2)cc1,-9.28
2,CC(=O)c1cccc(NC(=S)NCCc2ccc(Cl)cc2)c1,-21.6
3,Cn1cc(S(=O)(=O)NCc2ccc3c(c2)OCO3)c(C(F)(F)F)n1,5.17
4,O=C(COC(=O)c1c(F)cccc1F)c1ccc[nH]1,13.5
5,O=C(CCc1ccccc1)NNC(=O)Cc1ccc(Cl)cc1,13.1
6,O=C(C=C1SCCS1)/C=C/c1ccco1,-15
7,CCOc1ccc(/C=N/NC(=O)CC(=O)NCc2ccccc2)cc1,3.44
8,Cc1ccc[n+](C(C)C(=O)c2ccc(-c3ccccc3)cc2)c1.[Br-] (centres unmarked),-9.47
9,CC(CN1CCOCC1)OC(=O)COc1ccc(F)cc1 (centres unmarked),3.54
10,Cc1ccc(S(=O)(=O)N2CCCCC2)cc1C(=O)N(C)CC(=O)Nc1ccc(Cl)c(C(F)(F)F)c1,1.16
11,O=C(O)c1cnn(-c2nc(-c3cccc(F)c3)cs2)c1C(F)(F)F,10.7
12,CC(=O)Nc1ccc(NC(=O)CSc2nnc3ccc(-c4ccccn4)nn23)cc1,3.71
13,CC1CCC(NC(=O)COC(=O)c2ccco2)CC1 (centres unmarked),7.07
14,COc1ccccc1-c1nnc(SCC(=O)Nc2nc(-c3ccccc3)cs2)n1C,-71.8
15,Cc1sc2nc(C(C)C)nc(SCC(=O)N3CCOCC3)c2c1C,-0.958
16,O=C(COC(=O)c1ccc2c(c1)OCO2)NC1CCS(=O)(=O)C1 (centres unmarked),4.8
17,COc1ccc(CCn2c(=S)[nH]c3cc(C(=O)NCc4ccco4)ccc3c2=O)cc1OC,-1.08
18,Cc1cc(NC(=O)COn2nnc3ccccc32)no1,6.35
19,COc1ccc(CNC(=O)c2nc(S(=O)(=O)Cc3ccccc3)ncc2Cl)cc1,-5.26
20,CC1CCc2nc3ccc(S(=O)(=O)N4CCC(C(=O)NC(C)c5ccccc5)CC4)cc3c(C(=O)O)c2C1 (centres unmarked),12.2
21,CS(=O)(=O)N1CCN(C(=O)COc2ccc3ccccc3c2)CC1,1.13
22,CCc1ccc(Nc2nc(N3CCOCC3)nc(N3CCOCC3)n2)cc1.Cl,8.6

row,SMILES,"hERG current change (%, negative = inhibition) at 10uM [%]"
1,O=C(NNC1=NCCCCC1)Nc1ccc(Cl)cc1,20.5
2,CC(=O)Nc1ccccc1OCC(=O)NCCC1=CCCCC1,7.87
3,COc1ccc(CN(C(=O)c2cccs2)C(C(=O)NC2CCCCC2)c2ccc3ncccc3c2)cc1 (centres unmarked),-47.9
4,COc1ccc(-c2cn3cc(C(F)(F)F)cc(Cl)c3n2)cc1,9.73
5,COc1ccc(C(=O)N/C(=C/c2cccc3ccccc23)C(=O)NCCc2c[nH]c3ccccc23)cc1OC,0.199
6,Cc1c(-c2ccc(Br)cc2)nc2ccccn12,-16.3
7,O=C(NN1CCOCC1)c1ccc(Cl)cc1Cl,-0.63
8,COc1cccc(C2=NO[C@@H]3C(=O)N(Cc4ccccc4)C(=O)[C@H]23)c1OC,-0.559
9,COc1ccc(O)c(/C=N/NC(=O)c2cc(=O)[nH]c3ccccc23)c1,-5.01
10,Cc1ccc(S(=O)(=O)NCCC(=O)N2CCN(S(=O)(=O)c3cccc(F)c3)CC2)cc1C,-16.2
11,COc1ccc(-c2cn(CCC(=O)NCc3ccc(C)cc3)c(CCN)n2)cc1,-3.37
12,CC1CCN(C(=O)C2CCN(C(=O)c3cc4sccc4n3Cc3ccc(F)cc3)CC2)CC1,-6.67
13,COc1ccccc1-c1cc(C(F)(F)F)nc(S(=O)(=O)CCCC(=O)N2CCOCC2)n1,2.47
14,CC(=O)Nc1ccc(OCC(O)CN2CCN(c3ccccc3Cl)CC2)cc1 (centres unmarked),-50.2
15,Cc1ccc(CSC2=Nc3ccccc3C3=NC(CC(=O)NCc4ccco4)C(=O)N23)cc1 (centres unmarked),-51.8
16,COCC(=O)N(Cc1cc2ccc(C)c(C)c2n2nnnc12)C1CCCC1,9.66
17,CCn1cnc2c1c(=O)n(Cc1cccc(Br)c1)c(=O)n2Cc1ccccc1,12
18,CCCS(=O)(=O)N1CCCC(C(=O)N2CCN(c3ccccc3)CC2)C1 (centres unmarked),6.84
19,Cc1cc(NC(=O)CSc2nnc3ccc(-c4ccc(F)cc4)nn23)no1,14.4
20,CCc1cccc(C)c1NC(=S)N(CCOC)C(C)c1ccco1 (centres unmarked),-9.38
